# Assay results: the supplement of paper PMC8728848
# Some of the results follow.
# Tests used:
# Assay in all cases: glycan array binding signal (z-score within array); higher = stronger binding
# Details in all cases: glycan notation: IUPAC condensed, linker removed
# [1] = target: Neu5Ac(a2-3)Gal(b1-3)GalNAc(b1-4)[Neu5Ac(a2-8)Neu5Ac(a2-3)]Gal(b1-4)Glc
# In short: (§1)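 The binding signal is a Z-score computed within each array. Data were drawn from 3228 arrays in the Consortium for Functional Glycomics database, restricted to those with a known protein sequence. Scores were averaged over arrays of the same protein sequence at different concentrations or buffers, and over linkers, and negative values can be taken as non-binding.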
# [2] = target: Neu5Ac(a2-3)Gal(b1-3)GalNAc6S
# In short: as §1
# [3] = target: Neu5Ac(a2-3)Gal(b1-3)GlcNAc
# In short: as §1
# [4] = target: Neu5Ac(a2-3)Gal(b1-3)GlcNAc(b1-2)Man
# In short: as §1
# [5] = target: Neu5Ac(a2-3)Gal(b1-3)GlcNAc(b1-2)Man(a1-3)[GlcNAc(b1-4)][Neu5Ac(a2-3)Gal(b1-3)GlcNAc(b1-2)Man(a1-6)]Man(b1-4)GlcNAc(b1-4)GlcNAc
# In short: as §1
# [6] = target: Neu5Ac(a2-3)Gal(b1-3)GlcNAc(b1-2)Man(a1-3)[Neu5Ac(a2-3)Gal(b1-3)GlcNAc(b1-2)Man(a1-6)]Man(b1-4)GlcNAc(b1-4)GlcNAc
# In short: as §1
# [7] = target: Neu5Ac(a2-3)Gal(b1-3)GlcNAc(b1-3)Gal(b1-3)GlcNAc
# In short: as §1
# [8] = target: Neu5Ac(a2-3)Gal(b1-3)GlcNAc(b1-3)Gal(b1-4)GlcNAc
# In short: as §1
# [9] = target: Neu5Ac(a2-3)Gal(b1-3)GlcNAc(b1-3)GalNAc
# In short: as §1
# [10] = target: Neu5Ac(a2-3)Gal(b1-3)GlcNAc(b1-4)Gal(b1-4)Glc
# In short: as §1
# [11] = target: Neu5Ac(a2-3)Gal(b1-3)GlcNAc(b1-6)GalNAc
# In short: as §1
# [12] = target: Neu5Ac(a2-3)Gal(b1-3)GlcNAc6S
# In short: as §1
# [13] = target: Neu5Ac(a2-3)Gal(b1-3)[Fuc(a1-4)]GlcNAc
# In short: as §1
# [14] = target: Neu5Ac(a2-3)Gal(b1-3)[Fuc(a1-4)]GlcNAc(b1-3)Gal(b1-3)[Fuc(a1-4)]GlcNAc
# In short: as §1
# [15] = target: Neu5Ac(a2-3)Gal(b1-3)[Fuc(a1-4)]GlcNAc(b1-3)Gal(b1-4)[Fuc(a1-3)]GlcNAc
# In short: as §1
# [16] = target: Neu5Ac(a2-3)Gal(b1-3)[GlcNAc(b1-6)]GalNAc
# In short: as §1
# [17] = target: Neu5Ac(a2-3)Gal(b1-3)[Neu5Ac(a2-3)Gal(b1-4)]GlcNAc
# In short: as §1
# [18] = target: Neu5Ac(a2-3)Gal(b1-3)[Neu5Ac(a2-6)]GalNAc
# In short: as §1
# [19] = target: Neu5Ac(a2-3)Gal(b1-3)[Neu5Ac(a2-6)]GlcNAc(b1-3)[Fuc(a1-3)[Gal(b1-4)]GlcNAc(b1-6)]Gal(b1-4)Glc
# In short: as §1
# [20] = target: Neu5Ac(a2-3)Gal(b1-3)]Neu5Ac(a2-3)Gal(b1-4)]GlcNAc
# In short: as §1
# Neu5Ac(a2-3)Gal(b1-4)Glc = target: Neu5Ac(a2-3)Gal(b1-4)Glc
# In short: as §1
# [21] = target: Neu5Ac(a2-3)Gal(b1-4)GlcNAc
# In short: as §1
# [22] = target: Neu5Ac(a2-3)Gal(b1-4)GlcNAc(b1-2)Man
# In short: as §1
# [23] = target: Neu5Ac(a2-3)Gal(b1-4)GlcNAc(b1-2)Man(a1-3)[GlcNAc(b1-4)][Neu5Ac(a2-3)Gal(b1-4)GlcNAc(b1-2)Man(a1-6)]Man(b1-4)GlcNAc(b1-4)GlcNAc
# In short: as §1
# [24] = target: Neu5Ac(a2-3)Gal(b1-4)GlcNAc(b1-2)Man(a1-3)[Neu5Ac(a2-3)Gal(b1-4)GlcNAc(b1-2)Man(a1-6)]Man(b1-4)GlcNAc(b1-4)GlcNAc
# In short: as §1
# [25] = target: Neu5Ac(a2-3)Gal(b1-4)GlcNAc(b1-2)Man(a1-3)[Neu5Ac(a2-3)Gal(b1-4)GlcNAc(b1-2)Man(a1-6)]Man(b1-4)GlcNAc(b1-4)[Fuc(a1-6)]GlcNAc
# In short: as §1
# [26] = target: Neu5Ac(a2-3)Gal(b1-4)GlcNAc(b1-2)Man(a1-3)[Neu5Ac(a2-6)Gal(b1-4)GlcNAc(b1-2)Man(a1-6)]Man(b1-4)GlcNAc(b1-4)GlcNAc
# In short: as §1
# [27] = target: Neu5Ac(a2-3)Gal(b1-4)GlcNAc(b1-2)[Neu5Ac(a2-3)Gal(b1-4)GlcNAc(b1-4)]Man(a1-3)[GlcNAc(b1-4)][Neu5Ac(a2-3)Gal(b1-4)GlcNAc(b1-2)[Neu5Ac(a2-3)Gal(b1-4)GlcNAc(b1-6)]Man(a1-6)]Man(b1-4)GlcNAc(b1-4)GlcNAc
# In short: as §1
# [28] = target: Neu5Ac(a2-3)Gal(b1-4)GlcNAc(b1-2)[Neu5Ac(a2-3)Gal(b1-4)GlcNAc(b1-4)]Man(a1-3)[GlcNAc(b1-4)][Neu5Ac(a2-3)Gal(b1-4)GlcNAc(b1-4)Man(a1-6)]Man(b1-4)GlcNAc(b1-4)GlcNAc
# In short: as §1
# [29] = target: Neu5Ac(a2-3)Gal(b1-4)GlcNAc(b1-2)[Neu5Ac(a2-3)Gal(b1-4)GlcNAc(b1-6)]Man(a1-6)[Neu5Ac(a2-3)Gal(b1-4)GlcNAc(b1-2)Man(a1-3)]Man(b1-4)GlcNAc(b1-4)GlcNAc
# In short: as §1
# [30] = target: Neu5Ac(a2-3)Gal(b1-4)GlcNAc(b1-2)[Neu5Ac(a2-3)Gal(b1-4)GlcNAc(b1-6)]Man(a1-6)[Neu5Ac(a2-3)Gal(b1-4)GlcNAc(b1-2)Man(a1-3)][GlcNAc(b1-4)]Man(b1-4)GlcNAc(b1-4)GlcNAc
# In short: as §1
# [31] = target: Neu5Ac(a2-3)Gal(b1-4)GlcNAc(b1-3)Gal
# In short: as §1
# [32] = target: Neu5Ac(a2-3)Gal(b1-4)GlcNAc(b1-3)Gal(b1-3)GlcNAc
# In short: as §1
# [33] = target: Neu5Ac(a2-3)Gal(b1-4)GlcNAc(b1-3)Gal(b1-4)GlcNAc
# In short: as §1
# [34] = target: Neu5Ac(a2-3)Gal(b1-4)GlcNAc(b1-3)Gal(b1-4)GlcNAc(b1-2)Man(a1-3)[Neu5Ac(a2-3)Gal(b1-4)GlcNAc(b1-3)Gal(b1-4)GlcNAc(b1-2)Man(a1-6)]Man(b1-4)GlcNAc(b1-4)GlcNAc
# In short: as §1
# [35] = target: Neu5Ac(a2-3)Gal(b1-4)GlcNAc(b1-3)Gal(b1-4)GlcNAc(b1-3)Gal(b1-4)GlcNAc
# In short: as §1
# [36] = target: Neu5Ac(a2-3)Gal(b1-4)GlcNAc(b1-3)Gal(b1-4)GlcNAc(b1-3)Gal(b1-4)GlcNAc(b1-2)Man(a1-3)[Neu5Ac(a2-3)Gal(b1-4)GlcNAc(b1-3)Gal(b1-4)GlcNAc(b1-3)Gal(b1-4)GlcNAc(b1-2)Man(a1-6)]GalNAc
# In short: as §1
# [37] = target: Neu5Ac(a2-3)Gal(b1-4)GlcNAc(b1-3)Gal(b1-4)GlcNAc(b1-3)GalNAc
# In short: as §1
# [38] = target: Neu5Ac(a2-3)Gal(b1-4)GlcNAc(b1-3)Gal(b1-4)GlcNAc(b1-3)[Neu5Ac(a2-3)Gal(b1-4)GlcNAc(b1-3)Gal(b1-4)GlcNAc(b1-6)]GalNAc
# In short: as §1
# [39] = target: Neu5Ac(a2-3)Gal(b1-4)GlcNAc(b1-3)Gal(b1-4)GlcNAc(b1-6)[Gal(b1-3)]GalNAc
# In short: as §1
# [40] = target: Neu5Ac(a2-3)Gal(b1-4)GlcNAc(b1-3)Gal(b1-4)[Fuc(a1-3)]GlcNAc
# In short: as §1
# [41] = target: Neu5Ac(a2-3)Gal(b1-4)GlcNAc(b1-3)GalNAc
# In short: as §1
# [42] = target: Neu5Ac(a2-3)Gal(b1-4)GlcNAc(b1-3)[Neu5Ac(a2-3)Gal(b1-4)GlcNAc(b1-6)]GalNAc
# In short: as §1
# [43] = target: Neu5Ac(a2-3)Gal(b1-4)GlcNAc(b1-6)GalNAc
# In short: as §1
# [44] = target: Neu5Ac(a2-3)Gal(b1-4)GlcNAc(b1-6)[Gal(b1-3)]GalNAc
# In short: as §1
binder,measurement,setting,value
"LCA (Lens culinaris), P02870 (protein) MASLQTQMISFYLIFLSILLTTIFFFKVNSTETTSFSITKFSPDQKNLIFQGDGYTTKGKLTLTKAVKSTVGRALYSTPIHIWDRDTGNVANFVTSFTFVIDAPSSYNVADEFTFFIAPVDTKPQTGGGYLGVFNSKEYDKTSQTVAVEFDTFYNAAWDPSNKERHIGIDVNSIKSVNTKSWNLQNGERANVVIAFNAATNVLTVTLTYPNSLEEENVTSYTLNEVVPLKDVVPEWVRIGFSATTGAEFAAHEVHSWSFHSELGGTSSSKQAADA",glycan array binding signal (z-score),[1],-0.23
same,glycan array binding signal (z-score),[2],-0.218
same,glycan array binding signal (z-score),[3],-0.15
same,glycan array binding signal (z-score),[4],-0.157
same,glycan array binding signal (z-score),[5],-0.233
same,glycan array binding signal (z-score),[6],-0.262
same,glycan array binding signal (z-score),[7],-0.22
same,glycan array binding signal (z-score),[8],-0.236
same,glycan array binding signal (z-score),[9],-0.207
same,glycan array binding signal (z-score),[10],-0.247
same,glycan array binding signal (z-score),[11],-0.238
same,glycan array binding signal (z-score),[12],-0.071
same,glycan array binding signal (z-score),[13],-0.216
same,glycan array binding signal (z-score),[14],-0.206
same,glycan array binding signal (z-score),[15],-0.204
same,glycan array binding signal (z-score),[16],-0.233
same,glycan array binding signal (z-score),[17],-0.228
same,glycan array binding signal (z-score),[18],-0.19
same,glycan array binding signal (z-score),[19],-0.234
same,glycan array binding signal (z-score),[20],-0.221
same,glycan array binding signal (z-score),Neu5Ac(a2-3)Gal(b1-4)Glc,-0.185
same,glycan array binding signal (z-score),[21],-0.226
same,glycan array binding signal (z-score),[22],-0.199
same,glycan array binding signal (z-score),[23],-0.262
same,glycan array binding signal (z-score),[24],-0.256
same,glycan array binding signal (z-score),[25],2.88
same,glycan array binding signal (z-score),[26],-0.237
same,glycan array binding signal (z-score),[27],-0.258
same,glycan array binding signal (z-score),[28],-0.267
same,glycan array binding signal (z-score),[29],-0.223
same,glycan array binding signal (z-score),[30],-0.238
same,glycan array binding signal (z-score),[31],-0.236
same,glycan array binding signal (z-score),[32],-0.217
same,glycan array binding signal (z-score),[33],-0.231
same,glycan array binding signal (z-score),[34],0.32
same,glycan array binding signal (z-score),[35],-0.228
same,glycan array binding signal (z-score),[36],0.411
same,glycan array binding signal (z-score),[37],-0.262
same,glycan array binding signal (z-score),[38],-0.123
same,glycan array binding signal (z-score),[39],-0.102
same,glycan array binding signal (z-score),[40],-0.245
same,glycan array binding signal (z-score),[41],-0.212
same,glycan array binding signal (z-score),[42],-0.259
same,glycan array binding signal (z-score),[43],-0.244
same,glycan array binding signal (z-score),[44],-0.236
